From ChEMBL document CHEMBL4888484, “Replenishing the malaria drug discovery pipeline: Screening and hit evaluation of the MMV Hit Generation Library 1 (HGL1) against asexual blood stage Plasmodium falciparum ,using a nano luciferase reporter read-out” (2022)
About 540 (0.36%) of roughly 150,000 compounds showed an effect of 50% or more. This is one part of the list.

System: Plasmodium falciparum
Experiment: Primary screen in NF54 nanoGlo assay, in single point, at 2uM, 72h; a lower Z score goes with more inhibition
Assay type: functional, Erythrocyte
Settings: timepoint 72 hour

| SMILES | % Inhibition [%] | Z score | % Inhibition (2 µM) [%] | Z score (2 µM) |
| --- | --- | --- | --- | --- |
| Cc1sccc1CN1CC[C@H](O)C12CCCC2 | 3 | -0.62 |  |  |
| Cc1noc(C2CN(C(=O)NCc3ccc(F)cc3)C2)n1 | -4 | 0.73 |  |  |
| CCc1n[nH]c2c1CN(c1cccc(C(=O)N(C)C)n1)CC2 | -17 | 1.6 |  |  |
| O=S(=O)(C1CC1)N1CCOC[C@H]1c1noc(-c2ccccc2)n1 | -6 | 0.73 |  |  |
| c1csc(-c2n[nH]cc2CNCC2CC2)c1 | -5 | 0.58 |  |  |
| C[C@H]1CN(C(=O)c2cc(Cl)cc(F)c2N)Cc2c[nH]nc21 | 2 | -0.33 |  |  |
| Cc1nc(CNC(=O)c2cn(CCN3CCOCC3)nn2)sc1C | -3 | 0.33 |  |  |
| COc1ccc(-c2nc3c(c(N4CCN(C(C)C)CC4)n2)CCOCC3)cc1 | 3 | -0.48 |  |  |
| OC1=Nc2cccc3c2c(cn3Cc2cccc(F)c2)[C@@H](c2ccccc2)C1 | -7 | 0.92 |  |  |
| CCN(Cc1ccc(Br)c(F)c1)S(C)(=O)=O | -3 | 0.38 |  |  |
| C#Cc1ccc(C(=O)N[C@H]2CCN(CC)CC2(F)F)cc1 | 7 | -0.93 |  |  |
| O=C([C@H]1CCc2nncn2C1)N1CCC(c2nc(C(F)(F)F)cs2)CC1 | -15 | 1.81 |  |  |
| CC(C)NC(=O)N(C)Cc1ccc(F)cc1 | 34 | -0.7 |  |  |
| Cn1nnc2c(N3CC[C@H](NC(=O)C(F)F)C34CCCC4)ncnc21 | -17 | 2.31 |  |  |
| Cc1nnc2cc(N3CCN(S(=O)(=O)c4ccccc4F)CC3)cnn12 | 8 | -0.91 |  |  |
| CC(C)(C)OC[C@@H](O)CN1C(C)(C)CCCC1(C)C | -6 | 0.63 |  |  |
| Cc1cc2c(cc1-c1ccnc(NCCN3CCOCC3)n1)NC(C)(C)C[C@@H]2C | -16 | 2.05 |  |  |
| CCOC(=O)N1CCC(NCc2c[nH]nc2-c2ccc(OC)cc2F)CC1 | -6 | 0.79 |  |  |
| C[C@H](Oc1ccccc1)C(=O)Nc1cnns1 | 7 | -0.99 |  |  |
| O=C(NCC1CC1)c1cn[nH]c1-c1ccccc1 |  |  | 6 | -0.76 |
| CC(C)[C@@H](C(=O)Nc1cc(Cl)ccc1O)N1CCCS1(=O)=O | -17 | 2.29 |  |  |
| COc1cncc(S(=O)(=O)NCCc2cnoc2)c1 | -2 | 0.29 |  |  |

| SMILES | % Inhibition [%] | Z score | % Inhibition (2 µM) [%] | Z score (2 µM) |
| --- | --- | --- | --- | --- |
| CC(C)CC1CCN(C(=O)c2coc(S(=O)(=O)N(C)C)c2)CC1 | 18 | -1.56 |  |  |
| O=C(N[C@H]1CCC[C@H]1Oc1cc(F)cc(F)c1)c1cccc[n+]1[O-] | -3 | 0.55 |  |  |
| CN(C)c1n[nH]c(NCc2csc(C3CC3)n2)n1 | -1 | 0.14 |  |  |
| O=C(CC[C@H]1CCCN(c2ccncc2)C1)NCc1ccccc1Cl | -10 | 1.41 |  |  |
| Cn1cc(-c2ccccc2)cc1C(=O)NCc1ccc(N2CCOCC2)cc1 | -3 | 0.44 |  |  |
| CO[C@H]1COC[C@@H]1NC(=O)c1ccn(C)c1C | 1 | -0.11 |  |  |
| O=C(Cn1cnc2ccccc21)NCc1cncc(-c2ccco2)c1 | -8 | 1.53 |  |  |
| COc1ccc(-c2noc([C@@H]3Cc4[nH]cnc4CN3Cc3ccc(F)cc3)n2)cc1 | 32 | -3.65 |  |  |
| O=c1c(-c2nc(-c3ccc(Br)cc3)no2)c[nH]c2ccccc12 | -10 | 1.63 |  |  |
| O=C(NCc1cccs1)c1cc(N2CCCC2)ncn1 | -2 | 0.26 |  |  |
| O=C(Nc1ccc2c(c1)OCO2)N1CCC(Oc2nc3ccccc3s2)CC1 | -15 | 2.13 |  |  |
| CC[C@H](C)S(=O)(=O)NC(=O)Cc1c(C)noc1C | 32 | -0.9 |  |  |
| CC(C)(C)[C@H](NCc1nnsc1Cl)C(N)=O | -10 | 1.41 |  |  |
| O=C(Nc1cc(Cl)cc(Cl)c1)N1CCCCCC1 | 2 | -0.43 |  |  |
| C[C@@H](C(=O)N1CC(C)(C)Oc2cc(Br)ccc21)n1cncn1 | -4 | 0.7 |  |  |
| CC(C)[C@H](Nc1ccc(C(F)(F)F)cc1Cl)C(=O)NCc1nnc2ccccn12 | -13 | 1.4 |  |  |
| CC(C(=O)NC1C=CCCC1)C(C)C(=O)NC1C=CCCC1 (centres undefined) | -38 | 4.44 |  |  |
| Cc1cccc(-n2nc(CC(N)=O)nc2[C@@]2(C)CCN(C)C2)c1C | -13 | 1.8 |  |  |
| CCc1nnc(-c2cc(NC(=O)Cc3ccc(C)cc3)c(C)s2)o1 | -11 | 1.05 |  |  |
| CC[C@H]1CCc2c(c(-c3cccc(O)c3)nc3c(-c4ccc(Cl)cc4)cnn23)C1 | 4 | -0.53 |  |  |
| Cc1cc(CNC(=O)CC(C)(C)C)c(C)o1 | 7 | -0.95 |  |  |
| COc1ccc(OC)c2c1cc1n2C[C@@](C)(C(=O)NC2CCCC2)N(CCc2ccccc2)C1=O | 0 | 0.05 |  |  |

| SMILES | % Inhibition [%] | Z score | % Inhibition (2 µM) [%] | Z score (2 µM) |
| --- | --- | --- | --- | --- |
| COc1ccc(C(=O)N2C[C@H](c3nnc(C(C)C)o3)C3(CCN(C)CC3)C2)cc1F | 6 | -0.99 |  |  |
| O=S(=O)(NC[C@H]1CCCCN1)c1cccc(F)c1F | -11 | 1.53 |  |  |
| Cc1cc(C)c[n+](CC(=O)c2ccc(-c3ccccc3)cc2)c1 | -8 | 0.93 |  |  |
| Cc1ccc(Nc2nc(N)nc(Cn3cnc(C)c3C)n2)cc1 | -3 | 0.51 |  |  |
| CCCN(CCC)c1ncc(C(=O)O)cc1NS(=O)(=O)c1ccc(F)c(F)c1 | -12 | 1.14 |  |  |
| CCc1nc(C)c(-c2nc(CCc3ccccc3)no2)s1 | -4 | 0.52 |  |  |
| CCN(CC(=O)Nc1ccc2c(c1)OCCCO2)Cc1nc2cc(Cl)ccc2c(=O)[nH]1 | 9 | -1.1 |  |  |
| CC(C)C1OCCCC1CNc1ccc(C#N)nc1 (centres undefined) | -7 | 0.92 |  |  |
| Cc1ccc(-c2nnc(-c3ccc(F)cc3)nc2NC(C)C)cc1 | -19 | 2.21 |  |  |
| O=C(NCc1ccco1)NCc1ccco1 | -4 | 0.8 |  |  |
| O=C(CCc1cccc(Cl)c1)N1CC[C@H](c2ccc3c(c2)OCO3)C1 | 4 | -0.57 |  |  |
| Fc1ccc(-c2ccc(CNC3CC3)o2)cc1Cl | -11 | 0.94 |  |  |
| O=C(c1cc(F)ccc1Cl)N1CCC[C@@]2(CCNC2)C1 | -15 | 1.36 |  |  |
| CN(C)C(=O)CN1CCc2cccc(NC(=O)OC(C)(C)C)c21 | 36 | -5.25 |  |  |
| CCn1nccc1-c1cccc(-c2noc(-c3cc(Cl)ccc3F)n2)c1 | -8 | 0.95 |  |  |
| O=C(CNCCc1ccc(Cl)cc1Cl)NCc1ccco1 | -13 | 1.12 |  |  |
| CC(C)Oc1ccc(-c2nc(N(C)C3CCCCC3)c3ccccc3n2)cc1 | 2 | -0.18 |  |  |
| O=C(c1ccccc1-n1ccnn1)N1CCC[C@H](OCC(F)(F)F)C1 | -15 | 2.94 |  |  |
| CCCCS(=O)(=O)N[C@H]1CCN(c2nc(C)cc(=O)[nH]2)C1 | -26 | 3.01 |  |  |
| CCO[C@H]1CCN(C(=O)c2coc3c2C(=O)NCC(C)(C)C3)C1 | 0 | -0.02 |  |  |
| Cn1c(CCNC(=O)[C@@H]2COCCN2)nc2ccc(F)cc21 | 1 | -0.19 |  |  |
| CCc1c(C)sc(NC(=O)Cc2c(C)nn(C)c2C)c1C#N | -2 | 0.37 |  |  |

| SMILES | % Inhibition [%] | Z score | % Inhibition (2 µM) [%] | Z score (2 µM) |
| --- | --- | --- | --- | --- |
| CC1=C(c2ccc(C(C)C)cc2)S(=O)(=O)N=C1N1CCN(C2CCCCC2)CC1 | -15 | 2.16 |  |  |
| Cc1cccnc1CCNC(=O)N1CC[C@H](N2CCCCC2)C1 | -15 | 1.43 |  |  |
| O=C1CCCN1C[C@@H](O)CN1CCCc2n[nH]cc21 | -3 | 0.36 |  |  |
| COCCC(=O)Nc1c(C(=O)OC)n(CCc2c[nH]c3ccccc23)c2ncc(N[C@@H](C)COC)cc12 | -10 | 1.28 |  |  |
| CS(=O)(=O)c1ccc(CNC(=O)N2CC[C@H](C3CCCC3)C2)s1 | -17 | 1.7 |  |  |
| Fc1ccc(CCN2CCC[C@H](n3ccnn3)C2)cc1F | -1 | 0.14 |  |  |
| NC(=O)CNc1cccc(Br)c1 | 13 | -1.55 |  |  |
| N#Cc1ncn(CC(=O)c2cnc(N3CCCCC3)s2)c1C#N | -6 | 0.66 |  |  |
| COc1ccc(-c2cc(-c3ccco3)cc(-c3ccc4c(c3)NC(=O)CO4)n2)cc1 | -39 | 4.62 |  |  |
| CCc1cnc(C)nc1N1CCC2(CCC(=O)N(Cc3ccncc3)C2)CC1 | -6 | 0.73 |  |  |
| Cc1ccc(CN(C)C(=O)C2CCCC2)o1 | -1 | 0.12 |  |  |
| CC(=O)N1C[C@H](C)c2scc(C)[n+]2-c2ccccc21 | -28 | 5.35 |  |  |
| O=C1CN(C(=O)COc2ccccc2)S(=O)(=O)c2ccccc21 | -35 | 4.1 |  |  |
| CC(C)(C)c1nnc2n1CCN(Cc1nccs1)C2 | -5 | 0.66 |  |  |
| CS(=O)(=O)N1C[C@H]2CC[C@@H](C1)N(C(=O)CCc1cccnc1)C2 | 1 | -0.06 |  |  |
| N#CCCN1CCC[C@H](c2ccncc2)C1 | -15 | 2.33 |  |  |
| CCNc1ncc(CN2CCC(Cc3n[nH]c(=O)n3CC)CC2)cn1 | -3 | 0.71 |  |  |
| CC(C)c1nc([C@@H]2CN(C(=O)C3(C(C)C)COC3)CCO2)no1 | 2 | -0.23 |  |  |
| COc1ccc(C(=O)N[C@@H](C)C2=CCCCC2)cn1 | 3 | -0.64 |  |  |
| CN(C[C@H](O)CO)C(=O)Nc1cccc(C(F)(F)F)c1F | -19 | 2.03 |  |  |
| Cc1cnc(N2CCN(C(=O)c3cscn3)[C@@H](C)C2)nc1 | 3 | -0.57 |  |  |
